PubChem BioAssay (NCATS)
“And” between values parts separate entries of the source, which are not always exact repeats. Equal entries are not always repeated. Inconclusive results, whose numbers are uncertain, are shown with a selection of clear calls. No potency is given beside an inconclusive call; the fits are too rough. The source made the active and inactive calls. Unless noted, the call rests on the fitted dose curve; in most records, active means well fitted curve in the direction sought with a large enough effect; inconclusive means small, poorly fitted or top-dose-only effect, or another doubt; inactive means no such curve, though single readings can be large; an effect the other way counts as inactive or inconclusive.

Experiments:
[1] = qHTS Validation Assay to Find Inhibitors of Chronic Active B-Cell Receptor Signaling (AID 485345; active means well fitted curve in the direction sought with a large enough effect in the main read-out, with a control signal flat, not every such curve was filed as active; inconclusive means small, poorly fitted or top-dose-only effect, or effect the other way, or a change in a side signal; inactive means no such curve, though single readings can be large or run the other way;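 on activity change: 0% = untreated basal cells and 100% = 10 µM MG-132 proteasome inhibitor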); details: ABC-DLBCL cells, chronic BCR signaling reporter; activity change: CBG luciferase, at 46.1 µM (top of the series)
Outline: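 TMD8 ABC-DLBCL cells stably carrying doxycycline-inducible IkappaBalpha–green luciferase fusion plus unfused red luciferase; compounds 46 uM to 3 nM, 4 h at 37C with doxycycline. Corrected green/red luminescence ratio normalized to 10 uM MG-132 and basal cell wells; curves fitted.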

[2] = target: ATP-dependent 6-phosphofructokinase (Trypanosoma brucei brucei) (UniProt O15648); assay: qHTS Validation Assay to Find Inhibitors of T. brucei phosphofructokinase (AID 485368)
Outline: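 Steps: substrate mix (0.5 mM F6P, 0.1 mM ATP, MgCl2, TEA pH 8.0); compound; 1.25 nM T. brucei PFK; 45 min RT; ATP depletion 10 min; ADP-to-ATP detection 10 min; luminescence read; curve fitting and classification.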

[3] = Quantitative high throughput screen for delayed death inhibitors of the malarial parasite plastid, 96 hour incubation (AID 488745); further: nearly all actives have a fitted effect of over 70% in size
Outline: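 Luciferase-expressing P. falciparum in erythrocytes (2% hematocrit, 0.1% parasitemia) incubated with compound for 96 h at 37 C, 5% CO2, in RPMI 1640 with 0.5% Albumax. Growth inhibition read as decreased luminescence.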

[4] = Quantitative high throughput screen for delayed death inhibitors of the malarial parasite plastid, 48 hour incubation (AID 488752); further: nearly all actives have a fitted effect of over 65% in size
Outline: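 Erythrocytes infected with firefly luciferase-expressing P. falciparum (2% hematocrit, 0.1% parasitemia) cultured with compound for 48 h at 37 C, 5% CO2, in RPMI 1640/0.5% Albumax. Growth inhibition read as loss of luminescence.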

[5] = target: M-phase phosphoprotein 8 (Homo sapiens) (UniProt Q99549); assay: qHTS Validation Assay for Inhibitors for MPP8 Chromodomain Interactions with Methylated Histone Tails (AID 488949); further: nearly all actives have a fitted effect of over 55% in size
Outline: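 MPP8 (50 nM) was preincubated with biotinylated H3(1-18)K9me3 peptide (50 nM) in PBS pH 7.4, 0.01% Tween-20 for 30 min at room temperature, then with compounds for 30 min; binding was detected by AlphaScreen.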

[6] = target: Chromobox protein homolog 1 (Homo sapiens) (UniProt P83916); assay: qHTS Validation Assay for Inhibitors of HP1-beta Chromodomain Interactions with Methylated Histone Tails (AID 488953); further: nearly all actives have a fitted effect of over 50% in size
Outline: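 HP1-beta (50 nM) preformed 30 min with biotinylated H3(1-18)K9me3 peptide (50 nM) in PBS pH 7.4, 0.01% Tween-20. Compounds added for 30 min at room temperature. Complex disruption read by AlphaScreen with streptavidin donor/nickel chelate acceptor beads (10 ug/mL each).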

[7] = target: Thioredoxin reductase 1, cytoplasmic (Rattus norvegicus) (UniProt O89049); assay: qHTS Assay for Inhibitors of Mammalian Selenoprotein Thioredoxin Reductase 1 (TrxR1) (AID 488773); details: Potency: inhibition; further: nearly all actives have a fitted effect of over 40% in size
Outline: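 Steps: enzyme (90 nM) plus NADPH (400 uM final), 5 min at ~22 deg C; compound added, 15 min; selenite (400 uM final) added; fluorescence followed for 8 min. Concentration-response curves derived from the normalized delta values.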

[8] = target: Beta-2 adrenergic receptor (Homo sapiens) (UniProt P07550); assay: qHTS validation assay of beta-arrestin-biased ligands of beta2-adrenergic receptor (AID 485366); details: cell-based beta-arrestin recruitment to ADRB2, qHTS
Outline: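 Arrestin-recruitment (Tango) reporter: ligand-bound beta2-AR recruits beta-arrestin, releasing tTA, which upregulates luciferase. Titrations of up to 46 microM incubated 18 hr at 37 degrees C before luminescent readout.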

[9] = target: Flap endonuclease 1 (Homo sapiens) (UniProt P39748); assay: qHTS Validation Assay for the Inhibitors of Human Flap endonuclease 1 (FEN1) (AID 488816)
Outline: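 Human FEN1 (10 nM) preincubated 15 min at room temperature with compounds, then flap DNA substrate added at 50 nM final. Fluorescence read at 0 and 15 min; concentration-response fitted with four-parameter Hill equation.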
Potency means the concentration at half of the fitted maximal effect; tags describe the fitted curve by direction and shape.

Chain of UniProt O15648 (O15648 whole entry, looked up): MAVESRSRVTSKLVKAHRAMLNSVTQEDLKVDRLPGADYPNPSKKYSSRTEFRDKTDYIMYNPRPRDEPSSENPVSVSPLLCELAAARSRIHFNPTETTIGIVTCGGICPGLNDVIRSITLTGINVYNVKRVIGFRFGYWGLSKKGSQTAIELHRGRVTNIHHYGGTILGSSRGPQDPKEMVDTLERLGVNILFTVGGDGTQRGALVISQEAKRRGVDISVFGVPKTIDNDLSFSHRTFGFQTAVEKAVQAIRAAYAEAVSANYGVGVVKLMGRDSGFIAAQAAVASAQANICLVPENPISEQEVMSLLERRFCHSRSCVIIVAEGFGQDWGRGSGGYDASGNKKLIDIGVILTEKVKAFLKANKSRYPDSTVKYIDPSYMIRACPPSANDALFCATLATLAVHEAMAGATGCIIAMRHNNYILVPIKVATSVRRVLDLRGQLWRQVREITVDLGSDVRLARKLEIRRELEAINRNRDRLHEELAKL
Chain of UniProt P83916 (P83916 whole entry, looked up): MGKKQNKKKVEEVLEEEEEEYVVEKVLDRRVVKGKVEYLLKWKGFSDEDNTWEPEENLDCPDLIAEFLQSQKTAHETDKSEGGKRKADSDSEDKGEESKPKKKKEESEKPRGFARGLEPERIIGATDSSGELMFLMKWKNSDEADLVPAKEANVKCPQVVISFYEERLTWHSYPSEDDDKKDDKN
Chain of UniProt Q99549 (Q99549 whole entry, looked up): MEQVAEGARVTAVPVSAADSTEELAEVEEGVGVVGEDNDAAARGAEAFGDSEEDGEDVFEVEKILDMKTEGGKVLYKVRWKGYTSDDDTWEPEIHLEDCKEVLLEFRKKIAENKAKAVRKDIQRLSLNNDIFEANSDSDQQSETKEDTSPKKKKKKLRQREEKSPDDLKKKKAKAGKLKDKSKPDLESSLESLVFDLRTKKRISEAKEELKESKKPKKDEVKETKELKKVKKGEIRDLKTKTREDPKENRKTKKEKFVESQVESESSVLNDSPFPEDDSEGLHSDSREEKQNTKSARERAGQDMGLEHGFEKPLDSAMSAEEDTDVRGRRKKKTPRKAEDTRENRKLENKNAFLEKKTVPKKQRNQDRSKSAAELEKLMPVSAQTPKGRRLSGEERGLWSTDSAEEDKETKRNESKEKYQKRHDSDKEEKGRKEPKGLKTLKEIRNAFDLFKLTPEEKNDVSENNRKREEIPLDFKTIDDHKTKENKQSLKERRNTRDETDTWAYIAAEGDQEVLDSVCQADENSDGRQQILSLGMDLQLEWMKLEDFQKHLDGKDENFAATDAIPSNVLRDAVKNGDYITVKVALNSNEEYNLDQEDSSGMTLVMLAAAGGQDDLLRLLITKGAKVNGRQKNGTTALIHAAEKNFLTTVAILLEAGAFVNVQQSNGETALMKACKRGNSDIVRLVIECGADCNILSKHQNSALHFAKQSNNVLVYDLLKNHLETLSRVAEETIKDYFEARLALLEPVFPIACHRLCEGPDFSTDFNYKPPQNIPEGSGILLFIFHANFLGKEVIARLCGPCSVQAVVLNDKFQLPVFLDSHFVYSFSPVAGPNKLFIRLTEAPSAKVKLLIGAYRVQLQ
Chain of UniProt O89049 (O89049 whole entry, looked up): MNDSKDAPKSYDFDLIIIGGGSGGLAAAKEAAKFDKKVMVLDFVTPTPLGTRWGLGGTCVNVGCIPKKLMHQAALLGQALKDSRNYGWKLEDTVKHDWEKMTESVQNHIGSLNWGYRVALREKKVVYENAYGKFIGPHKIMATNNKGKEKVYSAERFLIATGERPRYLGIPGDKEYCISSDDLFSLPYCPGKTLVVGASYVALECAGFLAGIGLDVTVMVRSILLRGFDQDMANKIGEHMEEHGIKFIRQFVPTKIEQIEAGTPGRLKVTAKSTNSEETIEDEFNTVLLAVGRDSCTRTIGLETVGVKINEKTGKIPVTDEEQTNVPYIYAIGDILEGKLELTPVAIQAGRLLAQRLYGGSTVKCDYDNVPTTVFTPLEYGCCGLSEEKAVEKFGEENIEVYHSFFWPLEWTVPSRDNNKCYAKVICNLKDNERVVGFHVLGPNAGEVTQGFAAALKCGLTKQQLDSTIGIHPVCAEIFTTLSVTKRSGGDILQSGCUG
Chain of UniProt P39748 (P39748 whole entry, looked up): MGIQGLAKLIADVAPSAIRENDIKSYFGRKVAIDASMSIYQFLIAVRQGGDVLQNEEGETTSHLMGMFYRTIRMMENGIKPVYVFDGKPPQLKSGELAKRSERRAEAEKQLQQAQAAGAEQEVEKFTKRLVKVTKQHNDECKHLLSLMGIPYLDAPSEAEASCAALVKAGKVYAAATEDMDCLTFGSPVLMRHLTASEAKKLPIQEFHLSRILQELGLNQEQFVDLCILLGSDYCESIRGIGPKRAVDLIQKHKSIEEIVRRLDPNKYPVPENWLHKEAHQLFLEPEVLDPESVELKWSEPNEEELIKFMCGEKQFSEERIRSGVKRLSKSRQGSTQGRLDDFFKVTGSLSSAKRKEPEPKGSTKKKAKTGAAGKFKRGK
Chain of UniProt P07550 (P07550 whole entry, looked up): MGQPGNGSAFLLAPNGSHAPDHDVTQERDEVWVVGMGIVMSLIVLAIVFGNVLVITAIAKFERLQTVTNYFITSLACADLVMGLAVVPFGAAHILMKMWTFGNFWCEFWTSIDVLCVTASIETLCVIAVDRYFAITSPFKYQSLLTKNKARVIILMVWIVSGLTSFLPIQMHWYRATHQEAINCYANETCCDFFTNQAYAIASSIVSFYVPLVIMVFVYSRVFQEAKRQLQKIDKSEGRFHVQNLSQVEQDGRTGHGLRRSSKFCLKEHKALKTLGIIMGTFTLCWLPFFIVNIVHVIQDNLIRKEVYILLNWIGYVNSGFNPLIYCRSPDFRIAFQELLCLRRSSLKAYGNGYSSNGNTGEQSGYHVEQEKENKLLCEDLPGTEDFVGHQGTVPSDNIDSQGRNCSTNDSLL

## O=c1c2ccccc2[se]n1-c1ccccc1
[1]
  Potency: inconclusive [cytotoxic, partial curve]
[2]
  Potency: active: 1.51 µM
[3]
  Potency: inconclusive [inhibitor, single point]
[4]
  Potency: inconclusive [inhibitor, single point]
[5]
  Potency: active: 5.01 µM and active: 2.99 µM
[6]
  Potency: active: 25.1 µM

## COc1cc(C(O)CN)ccc1O (stereo not drawn)
[2]
  Potency: inactive

## O=C(O)CCCc1ccc(N(CCCl)CCCl)cc1
[1]
  Potency: inconclusive [rising, full curve, poor fit]
[2]
  Potency: inconclusive [falling, single point]
[7]
  Potency: inconclusive [inhibitor, partial curve]

## O=c1[nH]oc2c1CCNC2
[2]
  Potency: inactive
[3]
  Potency: inactive

## O=[N+]([O-])c1ccc(O[C@@H]2O[C@H](CO)[C@@H](O)[C@H](O)[C@H]2F)c([N+](=O)[O-])c1
[2]
  Potency: inconclusive [falling, partial curve, poor fit]

## CN1C[C@H](CNC(=O)OCc2ccccc2)C[C@@H]2c3cccc4c3c(cn4C)C[C@H]21
[1]
  activity change: inconclusive: -36.4%
[4]
  Potency: active: 7.38 µM
[5]
  Potency: inconclusive [inhibitor, partial curve, poor fit]
[6]
  Potency: active: 44.7 µM

## CN1CC[C@@]2(C)c3cc(OC(=O)Nc4ccccc4)ccc3N(C)[C@@H]12
[1]
  activity change: inconclusive: -30.2%
[2]
  Potency: inconclusive [falling, full curve]
[6]
  Potency: inconclusive [inhibitor, single point]

## NCC1(CC(=O)O)CCCCC1
[2]
  Potency: inconclusive [activator, full curve, poor fit]

## NC(N)=Nc1ccc2[nH]c3c(c2c1)C[C@@]1(O)[C@H]2Cc4ccc(O)c5c4[C@@]1(CCN2CC1CC1)[C@H]3O5
[8]
  Potency: inconclusive [rising, single point]
[2]
  Potency: inconclusive [falling, partial curve]
[3]
  Potency: inconclusive [inhibitor, single point]
[9]
  Potency: inconclusive [inhibitor, single point]
[6]
  Potency: active: 28.2 µM

## CN1CC[C@@]2(C)c3cc(O)ccc3N(C)C12 (stereo partly drawn)
[1]
  Potency: inactive
[2]
  Potency: inconclusive [falling, single point]
[3]
  Potency: inconclusive [inhibitor, partial curve, poor fit]
[7]
  Potency: inconclusive [inhibitor, full curve, poor fit]
[6]
  Potency: active: 0.0095 µM

## Cc1cc([C@@H]2CCCN2C)on1
[2]
  Potency: inconclusive [activator, single point]

## CCCC(C)(COC(N)=O)COC(=O)NC(C)C (stereo not drawn)
[2]
  Potency: inconclusive [falling, partial curve]

## CC1=NN=C(c2ccc(N)cc2)c2cc3c(cc2C1)OCO3
[2]
  Potency: inconclusive [falling, full curve, poor fit]

## C#CCN[C@H](C)Cc1ccccc1
[2]
  Potency: inactive

## CC(C)(C)NCC(O)c1ccccc1Cl (stereo not drawn)
[2]
  Potency: inconclusive [falling, single point]

## COc1ccc2c(c1OC)C(=O)O[C@H]2[C@@H]1c2cc3c(cc2CCN1C)OCO3
[1]
  activity change: inconclusive: -38.2%
[3]
  Potency: inconclusive [activator, single point]

## CC(Cc1ccc(O)cc1)NCC(O)c1cc(O)cc(O)c1 (stereo not drawn)
[2]
  Potency: inconclusive [activator, full curve, poor fit]

## Cc1ncsc1CCCl
[1]
  Potency: inactive
[5]
  Potency: inactive

## NC(=O)CN1CCCC1=O
[2]
  Potency: inconclusive [falling, single point]

## CC[C@@H](C(N)=O)N1CCCC1=O
[2]
  Potency: inactive

## Cc1cccc(C)c1NC1=NCCCS1
[2]
  Potency: inactive
[3]
  Potency: inconclusive [activator, single point]

## CC(CCc1ccccc1)NC(C)C(O)c1ccc(O)cc1 (stereo not drawn)
[2]
  Potency: inactive

## NCCc1ccc(O)cc1
[1]
  Potency: inactive
[2]
  Potency: inactive
[3]
  Potency: inactive
[6]
  Potency: inactive

## CC[C@@]1(O)C(=O)OCc2c1cc1n(c2=O)Cc2cc3ccccc3nc2-1
[1]
  activity change: inconclusive: 44.2%
[3]
  Potency: active: 1.47 µM
[6]
  Potency: inconclusive [inhibitor, partial curve]

## NCC(CC(=O)O)c1ccc(Cl)cc1 (stereo not drawn)
[2]
  Potency: inconclusive [activator, single point]

## Fc1ccc(C(OCCN2CCN(CCCc3ccccc3)CC2)c2ccc(F)cc2)cc1
[1]
  activity change: inconclusive: -6.8%
[3]
  Potency: inactive
[4]
  Potency: inconclusive [inhibitor, single point]
[6]
  Potency: active: 39.8 µM
